Here are results for 69 compounds from PubChem BioAssay AID488969 (Vanderbilt High Throughput Screening Facility, 2010).

Whole data set: some 110,000 compounds, median “z-score” near -0.1, cut for the highest 2% near 2. Some of the results follow. Calls of active or inactive are those of the source.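 The calls were made as follows: active = z-score in the third read window above 3 or below -3; inactive = the rest.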

The test concerns the target Metabotropic glutamate receptor 8 (Rattus norvegicus) (UniProt P70579). Description: rat mGluR8 modulators via GIRK flux, primary screen, cell-based, thallium flux, HTS (AID 488969). As to conditions: HEK293 rat mGluR8, GIRK (G protein-gated inwardly rectifying potassium channel) thallium flux, FluoZin2; at 10 µM; stronger effect = higher value; submaximal glutamate (EC20) added with thallium.
UniProt P70579, sequence (P70579 whole entry, looked up): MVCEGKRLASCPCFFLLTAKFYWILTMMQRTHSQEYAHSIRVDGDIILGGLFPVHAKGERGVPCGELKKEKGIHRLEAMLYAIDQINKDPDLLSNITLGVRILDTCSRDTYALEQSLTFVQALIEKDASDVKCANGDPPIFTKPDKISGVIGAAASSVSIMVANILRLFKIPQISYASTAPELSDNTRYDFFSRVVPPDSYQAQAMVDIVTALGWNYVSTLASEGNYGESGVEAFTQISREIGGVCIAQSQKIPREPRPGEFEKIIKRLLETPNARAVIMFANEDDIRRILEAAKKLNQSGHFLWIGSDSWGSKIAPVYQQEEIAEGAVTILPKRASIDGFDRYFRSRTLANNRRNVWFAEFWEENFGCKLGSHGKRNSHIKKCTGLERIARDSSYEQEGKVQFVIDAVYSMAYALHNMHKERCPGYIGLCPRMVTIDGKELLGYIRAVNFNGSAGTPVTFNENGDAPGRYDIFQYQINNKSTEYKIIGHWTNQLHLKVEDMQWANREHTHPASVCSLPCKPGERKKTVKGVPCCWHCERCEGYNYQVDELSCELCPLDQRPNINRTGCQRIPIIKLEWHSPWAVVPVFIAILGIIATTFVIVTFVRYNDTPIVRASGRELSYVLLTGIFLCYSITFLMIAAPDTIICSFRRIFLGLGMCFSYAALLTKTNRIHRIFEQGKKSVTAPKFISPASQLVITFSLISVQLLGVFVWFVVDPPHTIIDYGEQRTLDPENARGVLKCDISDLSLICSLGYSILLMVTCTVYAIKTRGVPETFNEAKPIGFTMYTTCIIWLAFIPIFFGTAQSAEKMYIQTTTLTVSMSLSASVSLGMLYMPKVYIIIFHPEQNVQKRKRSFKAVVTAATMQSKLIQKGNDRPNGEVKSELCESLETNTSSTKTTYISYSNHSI
`O=C(NCc1ccccc1)c1cccc(NC(=O)c2ccco2)c1`: the z-score was -0.189.
Turning to `O=C(CN1N=C(c2ccccc2)CCC1=O)NCCN1CCc2ccccc2C1`, the z-score was -0.165.
Consider `Cc1nn(-c2ccccc2)c(Cl)c1/C=N/NC(=O)c1ccco1`, for which the z-score is -0.687.
The compound `COc1ccc(OCCNC(=O)C(c2ccccc2)c2ccccc2)cc1` had a z-score of -0.173.
Next, `NC(=O)/C=C\C(=O)Nc1cccc(C(F)(F)F)c1`: -0.114; `CCN(CC)S(=O)(=O)c1ccc2oc(SCC3CN=C(c4ccc(OC)cc4)S3)nc2c1` (centres undefined): -1.19; `COc1ccccc1-c1nnc(NC(=O)c2ccccc2F)o1`: -0.0456.
Take `CCOC(=O)CSc1ccc2nnc(-c3cccnc3)n2n1`: the z-score is 0.122.
Next, `CCn1c(=O)n(CC(=O)NCc2ccccc2OC)c(=O)c2ccccc21`: -0.295.
In turn, `CCOc1ccc(NC(=O)CC2C(=O)N(c3ccc(OC)cc3)C(=O)N2CCc2cccs2)cc1` (centres undefined) displayed a z-score of -0.164.
As for `CCOC(=O)c1cnc(SCC(=O)Nc2cc(OC)ccc2OC)nc1N`, the z-score was -0.697.
`CCc1ccc(/C=c2\s/c(=C\C(=O)C(C)(C)C)[nH]c2=O)cc1`: the z-score is active: 7.24.
For `CCOC(=O)C1=C(c2ccccc2)O/C(=C(/C#N)C(F)(F)F)S1`, the z-score turned out to be 1.84.
As to `Cc1cc(OCCOc2cccc3cccnc23)cc(C)c1Cl`, the z-score was -0.211.
In turn, `CN(C)c1ccc(C(CNS(=O)(=O)c2ccc3ccccc3c2)c2c[nH]c3ccccc23)cc1` (centres undefined) returned a z-score of -0.162.
As for `O=C(Cn1c(-c2cscn2)nc2ccccc21)Nc1ccccc1F`, the z-score was -0.043.
As to `NS(=O)(=O)c1ccc(CCNC(=O)CSc2nc3ccsc3c(=O)n2CC(=O)O)cc1`, the z-score was 0.0148.
The compound `CN1CCN(C2=Cc3ccc(Cl)cc3Sc3ccc(F)cc32)CC1` yielded a z-score of -0.269.
Compound `COc1cccc(-c2nc(N3CC(C)CC(C)C3)c3ccccc3n2)c1O` (centres undefined) displayed a z-score of -0.374.
`CCn1c(SCc2nc3ccccc3c(=O)[nH]2)nnc1-c1cccnc1` yielded a z-score of -0.303.
`Cc1nn2c(-c3cccnc3)ccnc2c1-c1ccccc1` yielded a z-score of -0.182.
Take `COc1ccc(/C=C2/N=C(SC3CCOC3=O)N(c3cccc(OC)c3)C2=O)cc1` (centres undefined): the z-score was 0.147.
Then `Cn1nnnc1SCCNCc1ccccc1F`, with -0.133; and `c1cnc2c(OCc3nc4ccccc4[nH]3)cccc2c1`, with -1.47; and `Cc1nn(-c2ccccc2)c2c1C(=O)N(Cc1ccccc1)C(=O)C(C)(C)C2`, with -0.384.
`Cc1ccc(C(=O)CSc2nnc(CNc3nc(-c4ccccc4)cs3)n2C)cc1`: the z-score was found to be 0.0587.
Consider `Cc1cc(NC(=O)c2cc(C(C)C)on2)no1`, for which the z-score came out at 1.12.
Compound `CC(C)c1nnc(NC(=O)C2c3ccccc3Oc3ccccc32)s1` came in with a z-score of 0.155.
Then `COc1ccc2nc(C)c3c(c2c1)OC(C)C3` (centres undefined), with -0.902; and `CCC(=O)Nc1cccc(C(=O)/C=C/c2cc(Br)ccc2OC)c1`, with 0.532.
Regarding `CCCCN1CN(Cc2ccccc2)CNC1=S`, the z-score came out at 1.6.
On to `Cc1ccc(S(=O)(=O)NNC(=O)CCC(=O)Nc2ccc(C)cc2C)cc1`, for which the z-score is 0.191.
Next, `Cc1cccnc1NC(=O)CSc1nnc(Cc2ccccc2)o1`: 0.255; `O=C(NCCCCCCNC(=O)C1CCCC1)C1CCCC1`: -0.0526.
Next, `COc1ccc2c(c1)S/C(=C\C(=O)c1ccncc1)N2C`: 0.256; `CCCCOC(=O)C(C#N)c1nc2ccccc2nc1N1CCN(Cc2ccc3c(c2)OCO3)CC1` (centres undefined): 0.071.
`COc1ccc(NC(=O)c2c(C(F)(F)F)nn(C)c2SCc2ccccc2Cl)cc1`: the z-score is -0.277.
Compound `Cc1cc(NC(=O)CSc2ccc(-c3ccccc3)nn2)no1` returned a z-score of -1.96.
The compound `O=C1C2C(c3ccccc3)C=CC(c3ccccc3)C2C(=O)N1CCO` (centres undefined) gave a z-score of 0.0194.
On to `c1ccc(CNc2ncnc3nc[nH]c23)cc1`, for which the z-score was -0.172.
Next, `COc1ccc(-n2c(=S)[nH]c3cc(C(=O)Nc4ccc(OC)c(OC)c4)ccc3c2=O)cc1`: -0.144.
Regarding `O=C(NCCc1ccccc1)C1CCN(Cc2ccccc2F)CC1`, the z-score was 0.0185.
`Cc1cccc(NC(=O)/C(C#N)=C\c2cccnc2)c1` returned a z-score of -0.898.
On to `Cn1c(=O)c2c(nc(N3CCN(c4ccccn4)CC3)n2Cc2ccccc2Cl)n(C)c1=O`, for which the z-score was -0.115.
In turn, `Cc1ccc(S(=O)(=O)c2nc(C(C)(C)C)oc2N2CCOCC2)cc1` had a z-score of -0.0758.
Then `COCCNc1cc(NCCOC)c([N+](=O)[O-])cc1[N+](=O)[O-]`, with -0.226; and `CC1(C)CC(=O)C(C(C2=C(O)CC(C)(C)CC2=O)c2cccs2)C(=O)C1` (centres undefined), with -0.296; and `COc1cc(NC(=O)C2CC(=O)NC3=C2C(=O)CCC3)cc(OC)c1` (centres undefined), with -0.00411.
For the compound `O=C(CSc1oc(-c2cccs2)nc1S(=O)(=O)c1ccc(F)cc1)NCC1CCCO1` (centres undefined), the z-score was 0.671.
Compound `C=C(C)CSC1=C(C#N)C(c2ccccc2)CC(=O)N1` (centres undefined) showed a z-score of -0.151.
`c1ccc(Cn2nnc3c(NCc4ccc5c(c4)OCO5)nc(C4CC4)nc32)cc1` yielded a z-score of 0.425.
Next, `Cc1cc(C(=O)CSc2nn(-c3ccccc3)c(=S)s2)c(C)n1Cc1ccco1`: -0.146.
As to `Cc1oc(-c2ccc(Cl)cc2)cc1-c1nn2c(-c3ccoc3C)nnc2s1`, the z-score worked out at 0.661.
Regarding `O=C(/C=C/c1ccccc1Cl)N(Cc1ccc(Cl)cc1)C1CCS(=O)(=O)C1` (centres undefined), the z-score is -1.55.
With `Cc1cc(C)n(CC(O)Cn2c3ccccc3c3ccccc32)c(=O)n1` (centres undefined), the z-score is -0.319.
For `Cc1ccc(-c2csc(NC(=O)c3cccc([N+](=O)[O-])c3)n2)cc1`, the z-score turned out to be 0.0463.
`COC(=O)c1c(NC(=O)COC(=O)c2ccccc2O)sc2c1CCCCC2` came in with a z-score of 0.0662.
Then `Cc1nnc(-c2cccc(Br)c2)c2cn(-c3ccc(Br)cc3)nc12`, with -0.232.
In turn, `NC1=NC(=O)/C(=C/c2cn(CCC(=O)O)nc2-c2ccc(Cl)cc2)S1` registered a z-score of -0.0317.
`O=C(COC(=O)c1cccc2c1C(=O)c1ccccc1C2=O)NC1CCCCC1` yielded a z-score of -0.482.
Regarding `CN(C)c1nc(OCCNC(=O)Nc2ccccc2)nc(N(C)C)n1`, the z-score was -1.06.
In turn, `CN(C1=C(NC(=O)c2ccc(Cl)cc2)C(=O)c2ccccc2C1=O)c1ccccc1` had a z-score of -0.269.
Consider `COc1ccc2cc(C(=O)N3CCOCC3)sc(=O)c2c1OC`, for which the z-score is 0.925.
On to `COc1ccc(N=C2S/C(=C\c3cccs3)C(=O)N2CC(C)C)cc1`, for which the z-score worked out at 0.512.
Next, `C/C=C/COc1nc2c(c(=O)n(C)c(=O)n2C)n1C`: 0.642.
In the case of `CC1(C)CC2CC(C)(CN2C(=O)COC(=O)c2ccc(Cl)c(N)c2)C1` (centres undefined), the z-score was -0.033.
In turn, `Cc1ccc(C(=O)c2ccccc2C(=O)OCC(=O)Nc2ccc(SC(F)F)cc2)cc1` registered a z-score of -0.192.
The compound `Cc1ccc(S(=O)(=O)N(C)CC(=O)N2CCOCC2)cc1` yielded a z-score of 0.0545.
Then `C[C@H](NC(=O)Cn1cncn1)c1ccccc1`, with 0.471.
